# Measurements taken from the supplement of paper PMC8728848.
# The other results are listed elsewhere or left out.
# B1: Siglec-E (Mus musculus), Q91Y57 (protein)
# chain: MLLLLLLLLLWGIKGVEGQNPQEVFTLNVERKVVVQEGLCVLVPCNFSYLKKRLTDWTDSDPVHGFWYREGTDRRKDSIVATNNPIRKAVKETRNRFFLLGDPWRNDCSLNIREIRKKDAGLYFFRLERGKTKYNYMWDKMTLVVTALTNTPQILLPETLEAGHPSNLTCSVPWDCGWTAPPIFSWTGTSVSFLSTNTTGSSVLTITPQPQDHGTNLTCQVTLPGTNVSTRMTTRLNVSYAPKNLTVTIYQGADSVSTILKNGSSLPISEGQSLRLICSTDSYPPANLSWSWDNLTLCPSKLSKPGLLELFPVHLKHGGVYTCQAQHALGSQHISLSLSPQSSATLSEMMMGTFVGSGVTALLFLSVCILLLAVRSYRRKPARPAVVAPHPDALKVSVSQNPLVESQADDSSEPLPSILEAAPSSTEEEIHYATLSFHEMKPMNLWGQQDTTTEYSEIKFPQRTAWP
# What was measured:
# Test in all cases: glycan array binding signal (z-score within array); higher = stronger binding
# Conditions in all cases: glycan notation: IUPAC condensed, linker removed
# [1] = molecular target: Fuc(a1-3)[Gal(b1-4)]GlcNAc(b1-3)Gal(b1-3)[Fuc(a1-4)]GlcNAc
# Procedure, shortened: (§1)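 The binding signal is a Z-score computed within each array. Data were drawn from 3228 arrays in the Consortium for Functional Glycomics database, restricted to those with a known protein sequence. Scores were averaged over arrays of the same protein sequence at different concentrations or buffers, and over linkers, and negative values can be taken as non-binding.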
# [2] = molecular target: Fuc(a1-3)[Gal(b1-4)]GlcNAc(b1-3)Gal(b1-4)[Fuc(a1-3)]GlcNAc
# Procedure, shortened: as §1
# [3] = molecular target: Fuc(a1-3)[Gal(b1-4)]GlcNAc(b1-3)Gal(b1-4)[Fuc(a1-3)]GlcNAc(b1-3)Gal(b1-4)[Fuc(a1-3)]GlcNAc
# Procedure, shortened: as §1
# [4] = molecular target: Fuc(a1-3)[Gal(b1-4)]GlcNAc(b1-3)GalNAc
# Procedure, shortened: as §1
# [5] = molecular target: Fuc(a1-3)[Gal(b1-4)]GlcNAc(b1-6)GalNAc
# Procedure, shortened: as §1
# [6] = molecular target: Fuc(a1-3)[Gal(b1-4)]GlcNAc(b1-6)[Gal(b1-3)GlcNAc(b1-3)]Gal(b1-4)Glc
# Procedure, shortened: as §1
# [7] = molecular target: Fuc(a1-3)[Gal(b1-4)]GlcNAc6S
# Procedure, shortened: as §1
# [8] = molecular target: Fuc(a1-3)[Gal3S(b1-4)]Glc
# Procedure, shortened: as §1
# [9] = molecular target: Fuc(a1-3)[Gal3S(b1-4)]GlcNAc
# Procedure, shortened: as §1
# [10] = molecular target: Fuc(a1-3)[Gal3S(b1-4)]GlcNAc6S
# Procedure, shortened: as §1
# [11] = molecular target: Fuc(a1-3)[GalNAc(b1-4)]GlcNAc
# Procedure, shortened: as §1
# [12] = molecular target: Fuc(a1-3)[GalNAc(b1-4)]GlcNAc6S
# Procedure, shortened: as §1
# [13] = molecular target: Fuc(a1-4)GlcNAc
# Procedure, shortened: as §1
# [14] = molecular target: Fuc(b1-3)GlcNAc
# Procedure, shortened: as §1
# [15] = molecular target: Gal(a1-2)Gal
# Procedure, shortened: as §1
# [16] = molecular target: Gal(a1-3)Gal
# Procedure, shortened: as §1
# [17] = molecular target: Gal(a1-3)Gal(b1-3)GlcNAc
# Procedure, shortened: as §1
# [18] = molecular target: Gal(a1-3)Gal(b1-3)GlcNAc(b1-2)Man
# Procedure, shortened: as §1
# [19] = molecular target: Gal(a1-3)Gal(b1-3)GlcNAc(b1-2)Man(a1-3)[Gal(a1-3)Gal(b1-3)GlcNAc(b1-2)Man(a1-6)]Man(b1-4)GlcNAc(b1-4)GlcNAc
# Procedure, shortened: as §1
# [20] = molecular target: Gal(a1-3)Gal(b1-3)GlcNAc(b1-3)GalNAc
# Procedure, shortened: as §1
# [21] = molecular target: Gal(a1-3)Gal(b1-3)GlcNAc(b1-6)GalNAc
# Procedure, shortened: as §1
# [22] = molecular target: Gal(a1-3)Gal(b1-3)[Fuc(a1-4)]GlcNAc(b1-2)Man(a1-3)[Gal(a1-3)Gal(b1-3)[Fuc(a1-4)]GlcNAc(b1-2)Man(a1-6)]Man(b1-4)GlcNAc(b1-4)GlcNAc
# Procedure, shortened: as §1
# [23] = molecular target: Gal(a1-3)Gal(b1-4)Glc
# Procedure, shortened: as §1
# [24] = molecular target: Gal(a1-3)Gal(b1-4)GlcNAc
# Procedure, shortened: as §1
# [25] = molecular target: Gal(a1-3)Gal(b1-4)GlcNAc(b1-2)Man
# Procedure, shortened: as §1
# [26] = molecular target: Gal(a1-3)Gal(b1-4)GlcNAc(b1-2)Man(a1-3)[Gal(a1-3)Gal(b1-4)GlcNAc(b1-2)Man(a1-6)]Man(b1-4)GlcNAc(b1-4)GlcNAc
# Procedure, shortened: as §1
# [27] = molecular target: Gal(a1-3)Gal(b1-4)GlcNAc(b1-3)GalNAc
# Procedure, shortened: as §1
# [28] = molecular target: Gal(a1-3)Gal(b1-4)GlcNAc(b1-6)GalNAc
# Procedure, shortened: as §1
# [29] = molecular target: Gal(a1-3)Gal(b1-4)[Fuc(a1-3)]GlcNAc
# Procedure, shortened: as §1
# [30] = molecular target: Gal(a1-3)Gal(b1-4)[Fuc(a1-3)]GlcNAc(b1-2)Man(a1-3)[Gal(a1-3)Gal(b1-4)[Fuc(a1-3)]GlcNAc(b1-2)Man(a1-6)]Man(b1-4)GlcNAc(b1-4)GlcNAc
# Procedure, shortened: as §1
# [31] = molecular target: Gal(a1-3)GalNAc
# Procedure, shortened: as §1
# [32] = molecular target: Gal(a1-3)[Gal(a1-4)]Gal(b1-4)GlcNAc
# Procedure, shortened: as §1
# [33] = molecular target: Gal(a1-4)Gal(b1-3)GlcNAc(b1-2)Man(a1-3)[Gal(a1-4)Gal(b1-3)GlcNAc(b1-2)Man(a1-6)]Man(b1-4)GlcNAc(b1-4)GlcNAc
# Procedure, shortened: as §1
# [34] = molecular target: Gal(a1-4)Gal(b1-4)Glc
# Procedure, shortened: as §1
# [35] = molecular target: Gal(a1-4)Gal(b1-4)GlcNAc
# Procedure, shortened: as §1
# [36] = molecular target: Gal(a1-4)Gal(b1-4)GlcNAc(b1-2)Man(a1-3)[Gal(a1-4)Gal(b1-4)GlcNAc(b1-2)Man(a1-6)]Man(b1-4)GlcNAc(b1-4)GlcNAc
# Procedure, shortened: as §1
# [37] = molecular target: Gal(a1-4)Gal(b1-4)GlcNAc(b1-3)Gal(b1-4)Glc
# Procedure, shortened: as §1
# [38] = molecular target: Gal(a1-4)GlcNAc
# Procedure, shortened: as §1
binder,measurement,setting,value
B1,glycan array binding signal (z-score),[1],-0.496
same,glycan array binding signal (z-score),[2],0.353
same,glycan array binding signal (z-score),[3],-0.476
same,glycan array binding signal (z-score),[4],0.563
same,glycan array binding signal (z-score),[5],-0.184
same,glycan array binding signal (z-score),[6],0.034
same,glycan array binding signal (z-score),[7],0.65
same,glycan array binding signal (z-score),[8],-0.406
same,glycan array binding signal (z-score),[9],-0.387
same,glycan array binding signal (z-score),[10],-0.369
same,glycan array binding signal (z-score),[11],-0.32
same,glycan array binding signal (z-score),[12],-0.504
same,glycan array binding signal (z-score),[13],4.01
same,glycan array binding signal (z-score),[14],-0.213
same,glycan array binding signal (z-score),[15],0.223
same,glycan array binding signal (z-score),[16],-0.326
same,glycan array binding signal (z-score),[17],1.98
same,glycan array binding signal (z-score),[18],-0.324
same,glycan array binding signal (z-score),[19],0.298
same,glycan array binding signal (z-score),[20],-0.031
same,glycan array binding signal (z-score),[21],-0.337
same,glycan array binding signal (z-score),[22],1.76
same,glycan array binding signal (z-score),[23],-0.331
same,glycan array binding signal (z-score),[24],-0.456
same,glycan array binding signal (z-score),[25],-0.325
same,glycan array binding signal (z-score),[26],0.197
same,glycan array binding signal (z-score),[27],-0.306
same,glycan array binding signal (z-score),[28],0.081
same,glycan array binding signal (z-score),[29],-0.381
same,glycan array binding signal (z-score),[30],6.54
same,glycan array binding signal (z-score),[31],-0.309
same,glycan array binding signal (z-score),[32],-0.489
same,glycan array binding signal (z-score),[33],1.04
same,glycan array binding signal (z-score),[34],-0.433
same,glycan array binding signal (z-score),[35],-0.307
same,glycan array binding signal (z-score),[36],4.23
same,glycan array binding signal (z-score),[37],0.116
same,glycan array binding signal (z-score),[38],-0.029
